According to the supplement of paper PMC8728848:
The list shows a part of the results.

Key:
Assay in all cases: glycan array binding signal (z-score within array); higher = stronger binding
Conditions in all cases: glycan notation: IUPAC condensed, linker removed; mutation: A146Q
[1] = molecular target: Fuc(a1-3)[Gal3S(b1-4)]GlcNAc
In short: (§1)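 Negative Z-scores can be read as non-binding. The Z-score is calculated within each array and then averaged across arrays of one protein sequence at different concentrations or buffers and across linkers. Arrays, 3228 in all, were curated from the Consortium for Functional Glycomics database and kept only where the protein sequence was available.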

[2] = molecular target: Fuc(a1-3)[Gal3S(b1-4)]GlcNAc6S
In short: as §1

[3] = molecular target: Fuc(a1-3)[GalNAc(b1-4)]GlcNAc
In short: as §1

Fuc(a1-4)GlcNAc = molecular target: Fuc(a1-4)GlcNAc
In short: as §1

Fuc(b1-3)GlcNAc = molecular target: Fuc(b1-3)GlcNAc
In short: as §1

Gal(a1-2)Gal = molecular target: Gal(a1-2)Gal
In short: as §1

Gal(a1-3)Gal = molecular target: Gal(a1-3)Gal
In short: as §1

Gal(a1-3)Gal(b1-3)GlcNAc = molecular target: Gal(a1-3)Gal(b1-3)GlcNAc
In short: as §1

[4] = molecular target: Gal(a1-3)Gal(b1-3)GlcNAc(b1-2)Man(a1-3)[Gal(a1-3)Gal(b1-3)GlcNAc(b1-2)Man(a1-6)]Man(b1-4)GlcNAc(b1-4)GlcNAc
In short: as §1

[5] = molecular target: Gal(a1-3)Gal(b1-3)[Fuc(a1-4)]GlcNAc(b1-2)Man(a1-3)[Gal(a1-3)Gal(b1-3)[Fuc(a1-4)]GlcNAc(b1-2)Man(a1-6)]Man(b1-4)GlcNAc(b1-4)GlcNAc
In short: as §1

Gal(a1-3)Gal(b1-4)Glc = molecular target: Gal(a1-3)Gal(b1-4)Glc
In short: as §1

Gal(a1-3)Gal(b1-4)GlcNAc = molecular target: Gal(a1-3)Gal(b1-4)GlcNAc
In short: as §1

[6] = molecular target: Gal(a1-3)Gal(b1-4)GlcNAc(b1-3)GalNAc
In short: as §1

[7] = molecular target: Gal(a1-3)Gal(b1-4)[Fuc(a1-3)]GlcNAc
In short: as §1

[8] = molecular target: Gal(a1-3)Gal(b1-4)[Fuc(a1-3)]GlcNAc(b1-2)Man(a1-3)[Gal(a1-3)Gal(b1-4)[Fuc(a1-3)]GlcNAc(b1-2)Man(a1-6)]Man(b1-4)GlcNAc(b1-4)GlcNAc
In short: as §1

Gal(a1-3)GalNAc = molecular target: Gal(a1-3)GalNAc
In short: as §1

[9] = molecular target: Gal(a1-3)[Gal(a1-4)]Gal(b1-4)GlcNAc
In short: as §1

[10] = molecular target: Gal(a1-4)Gal(b1-3)GlcNAc(b1-2)Man(a1-3)[Gal(a1-4)Gal(b1-3)GlcNAc(b1-2)Man(a1-6)]Man(b1-4)GlcNAc(b1-4)GlcNAc
In short: as §1

Gal(a1-4)Gal(b1-4)Glc = molecular target: Gal(a1-4)Gal(b1-4)Glc
In short: as §1

Gal(a1-4)Gal(b1-4)GlcNAc = molecular target: Gal(a1-4)Gal(b1-4)GlcNAc
In short: as §1

[11] = molecular target: Gal(a1-4)Gal(b1-4)GlcNAc(b1-2)Man(a1-3)[Gal(a1-4)Gal(b1-4)GlcNAc(b1-2)Man(a1-6)]Man(b1-4)GlcNAc(b1-4)GlcNAc
In short: as §1

[12] = molecular target: Gal(a1-4)Gal(b1-4)GlcNAc(b1-3)Gal(b1-4)Glc
In short: as §1

Gal(a1-4)GlcNAc = molecular target: Gal(a1-4)GlcNAc
In short: as §1

Gal(a1-6)Glc = molecular target: Gal(a1-6)Glc
In short: as §1

Gal(b1-2)Gal = molecular target: Gal(b1-2)Gal
In short: as §1

Gal(b1-3)Gal = molecular target: Gal(b1-3)Gal
In short: as §1

Gal(b1-3)Gal(b1-4)GlcNAc = molecular target: Gal(b1-3)Gal(b1-4)GlcNAc
In short: as §1

[13] = molecular target: Gal(b1-3)Gal(b1-4)GlcNAc(b1-2)Man(a1-3)[Gal(b1-3)Gal(b1-4)GlcNAc(b1-2)Man(a1-6)]Man(b1-4)GlcNAc(b1-4)GlcNAc
In short: as §1

Gal(b1-3)GalNAc = molecular target: Gal(b1-3)GalNAc
In short: as §1

[14] = molecular target: Gal(b1-3)GalNAc(a1-3)[Fuc(a1-2)]Gal(b1-4)Glc
In short: as §1

[15] = molecular target: Gal(b1-3)GalNAc(a1-3)[Fuc(a1-2)]Gal(b1-4)GlcNAc
In short: as §1

[16] = molecular target: Gal(b1-3)GalNAc(b1-3)Gal(a1-4)Gal(b1-4)Glc
In short: as §1

[17] = molecular target: Gal(b1-3)GalNAc(b1-4)Gal(b1-4)Glc
In short: as §1

[18] = molecular target: Gal(b1-3)GalNAc(b1-4)[Neu5Ac(a2-3)]Gal(b1-4)Glc
In short: as §1

Gal(b1-3)GlcNAc = molecular target: Gal(b1-3)GlcNAc
In short: as §1

[19] = molecular target: Gal(b1-3)GlcNAc(a1-6)Gal(b1-4)GlcNAc
In short: as §1

[20] = molecular target: Gal(b1-3)GlcNAc(b1-2)Man(a1-3)[Gal(b1-3)GlcNAc(b1-2)Man(a1-6)]Man(b1-4)GlcNAc(b1-4)GlcNAc
In short: as §1

B1: Gal 3 (Homo sapiens), P17931 (protein)
chain: MADNFSLHDALSGSGNPNPQGWPGAWGNQPAGAGGYPGASYPGAYPGQAPPGAYPGQAPPGAYHGAPGAYPGAPAPGVYPGPPSGPGAYPSSGQPSAPGAYPATGPYGAPAGPLIVPYNLPLPGGVVPRMLITILGTVKPNANRIQLDFQRGNDVAFHFNPRFNENNRRVIVCNTKLDNNWGREERQSVFPFESGKPFKIQVLVEPDHFKVAVNDAHLLQYNHRVKKLNEISKLGISGDIDLTSASYTMI
With B1 as the binder, how does the “glycan array binding signal (z-score)” value [1] read?
Its value is -0.188.

What about the “glycan array binding signal (z-score)” value [2] of the same binder?
Its value is -0.044.

And the “glycan array binding signal (z-score)” value [3]?
The value was -0.188.

And the “glycan array binding signal (z-score)” value (Fuc(a1-4)GlcNAc)?
Its value is -0.12.

What about the “glycan array binding signal (z-score)” value (Fuc(b1-3)GlcNAc) of the same binder?
The value was -0.19.

And the “glycan array binding signal (z-score)” value (Gal(a1-2)Gal)?
Its value is -0.2.

What about the “glycan array binding signal (z-score)” value (Gal(a1-3)Gal) of the same binder?
Its value is -0.198.

And the “glycan array binding signal (z-score)” value (Gal(a1-3)Gal(b1-3)GlcNAc)?
The value was -0.087.

And the “glycan array binding signal (z-score)” value [4]?
Its value is -0.196.

What about the “glycan array binding signal (z-score)” value [5] of the same binder?
The value was -0.188.

What about the “glycan array binding signal (z-score)” value (Gal(a1-3)Gal(b1-4)Glc) of the same binder?
The value was -0.19.

What about the “glycan array binding signal (z-score)” value (Gal(a1-3)Gal(b1-4)GlcNAc) of the same binder?
The value was -0.102.

And the “glycan array binding signal (z-score)” value [6]?
The value was 0.682.

What about the “glycan array binding signal (z-score)” value [7] of the same binder?
The value was -0.19.

And the “glycan array binding signal (z-score)” value [8]?
Its value is -0.078.

And the “glycan array binding signal (z-score)” value (Gal(a1-3)GalNAc)?
The value was -0.199.

What about the “glycan array binding signal (z-score)” value [9] of the same binder?
The value was -0.158.

And the “glycan array binding signal (z-score)” value [10]?
Its value is -0.197.

What about the “glycan array binding signal (z-score)” value (Gal(a1-4)Gal(b1-4)Glc) of the same binder?
Its value is -0.19.

What about the “glycan array binding signal (z-score)” value (Gal(a1-4)Gal(b1-4)GlcNAc) of the same binder?
Its value is -0.194.

And the “glycan array binding signal (z-score)” value [11]?
The value was -0.204.

What about the “glycan array binding signal (z-score)” value [12] of the same binder?
Its value is -0.187.

And the “glycan array binding signal (z-score)” value (Gal(a1-4)GlcNAc)?
Its value is -0.197.

And the “glycan array binding signal (z-score)” value (Gal(a1-6)Glc)?
Its value is -0.188.

What about the “glycan array binding signal (z-score)” value (Gal(b1-2)Gal) of the same binder?
The value was -0.194.

What about the “glycan array binding signal (z-score)” value (Gal(b1-3)Gal) of the same binder?
The value was -0.193.

And the “glycan array binding signal (z-score)” value (Gal(b1-3)Gal(b1-4)GlcNAc)?
Its value is -0.201.

What about the “glycan array binding signal (z-score)” value [13] of the same binder?
Its value is 10.2.

And the “glycan array binding signal (z-score)” value (Gal(b1-3)GalNAc)?
The value was -0.185.

What about the “glycan array binding signal (z-score)” value [14] of the same binder?
The value was -0.187.

And the “glycan array binding signal (z-score)” value [15]?
Its value is -0.198.

And the “glycan array binding signal (z-score)” value [16]?
The value was -0.19.

What about the “glycan array binding signal (z-score)” value [17] of the same binder?
Its value is -0.191.

What about the “glycan array binding signal (z-score)” value [18] of the same binder?
Its value is -0.193.

And the “glycan array binding signal (z-score)” value (Gal(b1-3)GlcNAc)?
The value was -0.154.

What about the “glycan array binding signal (z-score)” value [19] of the same binder?
The value was -0.197.

What about the “glycan array binding signal (z-score)” value [20] of the same binder?
Its value is -0.169.
